From publication PMC6424025, “Human DNA polymerase delta is a pentameric holoenzyme with a dimeric p12 subunit” (Life Science Alliance, 2019)
These are yes or no findings as the source states them, for the method shown. For some of these results: In cells and extracts the contact can be indirect. Some results given as binding are weak or reduced against the parent protein; the word gives no strength. For some of these results: Tags and fused reporters may be left off the sequences shown.

Sequences of proteins named here, by UniProt entry; tags and fusion partners are left off.
UniProt P28340: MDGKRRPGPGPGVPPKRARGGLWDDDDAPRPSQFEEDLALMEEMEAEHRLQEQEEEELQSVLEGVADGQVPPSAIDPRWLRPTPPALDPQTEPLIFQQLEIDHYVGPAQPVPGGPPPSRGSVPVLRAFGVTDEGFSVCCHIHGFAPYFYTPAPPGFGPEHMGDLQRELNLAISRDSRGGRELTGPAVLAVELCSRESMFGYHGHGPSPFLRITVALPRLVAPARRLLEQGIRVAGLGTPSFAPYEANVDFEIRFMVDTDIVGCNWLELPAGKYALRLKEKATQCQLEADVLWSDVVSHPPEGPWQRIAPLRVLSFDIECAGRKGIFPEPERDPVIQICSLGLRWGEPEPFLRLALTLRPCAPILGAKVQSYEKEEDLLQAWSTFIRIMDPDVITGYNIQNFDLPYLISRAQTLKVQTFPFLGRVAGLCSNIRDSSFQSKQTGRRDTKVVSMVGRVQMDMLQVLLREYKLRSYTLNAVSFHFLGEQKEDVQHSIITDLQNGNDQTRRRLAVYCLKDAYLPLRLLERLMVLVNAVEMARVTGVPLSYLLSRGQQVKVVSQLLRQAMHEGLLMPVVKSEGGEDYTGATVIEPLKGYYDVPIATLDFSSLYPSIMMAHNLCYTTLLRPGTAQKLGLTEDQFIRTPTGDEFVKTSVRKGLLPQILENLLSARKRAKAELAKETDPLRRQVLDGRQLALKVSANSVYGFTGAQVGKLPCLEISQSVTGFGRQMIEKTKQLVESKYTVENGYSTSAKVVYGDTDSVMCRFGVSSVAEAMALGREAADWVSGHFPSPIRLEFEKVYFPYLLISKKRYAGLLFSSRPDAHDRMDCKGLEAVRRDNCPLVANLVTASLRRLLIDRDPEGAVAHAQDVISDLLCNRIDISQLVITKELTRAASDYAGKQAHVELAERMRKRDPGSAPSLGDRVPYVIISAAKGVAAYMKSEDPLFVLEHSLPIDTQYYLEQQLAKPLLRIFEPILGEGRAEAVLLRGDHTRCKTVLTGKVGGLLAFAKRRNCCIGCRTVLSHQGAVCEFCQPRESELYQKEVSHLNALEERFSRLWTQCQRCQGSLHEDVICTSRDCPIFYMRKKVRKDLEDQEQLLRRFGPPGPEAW
UniProt P49005: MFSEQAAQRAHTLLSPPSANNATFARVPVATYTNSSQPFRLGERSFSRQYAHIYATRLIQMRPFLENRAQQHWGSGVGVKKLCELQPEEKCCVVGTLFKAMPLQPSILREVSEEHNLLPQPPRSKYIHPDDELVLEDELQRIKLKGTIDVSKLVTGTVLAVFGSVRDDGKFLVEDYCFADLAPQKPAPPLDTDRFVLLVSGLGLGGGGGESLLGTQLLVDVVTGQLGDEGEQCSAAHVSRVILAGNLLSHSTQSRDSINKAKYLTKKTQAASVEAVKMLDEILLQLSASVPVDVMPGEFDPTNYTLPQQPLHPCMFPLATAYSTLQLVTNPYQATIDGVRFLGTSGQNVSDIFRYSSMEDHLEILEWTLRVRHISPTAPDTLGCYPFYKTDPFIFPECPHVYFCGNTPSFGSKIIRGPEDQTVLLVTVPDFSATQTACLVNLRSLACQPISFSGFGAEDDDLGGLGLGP

Experiments:
[1] = target: GST-p125, co-expressed in E. coli (human) (UniProt P28340); assay: pull-down; GST-affinity purification of hPolδ from E. coli BLR (DE3) co-expressing GST-p125 and pCOLA-hPold234 (p50, p68, His-FLAG-p12) on glutathione-sepharose; bands authenticated by Western blot
[2] = target: T1, p12, wild type, expressed in HEK293 cells (GFP-p12 and FLAG-p12) (human) (UniProt Q9HCU8); assay: co-IP; HEK293 cells transfected with GFP-p12; anti-GFP antibody-conjugated agarose beads, RIPA buffer; native subunits detected by subunit-specific antibodies
T1 sequence: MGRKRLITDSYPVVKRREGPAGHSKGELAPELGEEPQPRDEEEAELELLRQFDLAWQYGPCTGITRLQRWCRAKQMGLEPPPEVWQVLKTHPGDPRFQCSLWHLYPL

[3] = target: native p125 of HEK293 cells (human (endogenous in HEK293)) (UniProt P28340); assay: co-IP; HEK293 cells transfected with GFP-p12; anti-p125 antibody-conjugated agarose beads, RIPA buffer; subunits detected by subunit-specific antibodies, GFP-p12 by anti-GFP
[4] = target: p12, wild type, yeast two-hybrid fusion (AD-p12 and BD-p12) (human) (UniProt Q9HCU8); assay: two-hybrid; HFY7C yeast, GAL4-AD and GAL4-BD fusions, HIS3 reporter, growth on Leu-Trp-His- medium, 2 d at 30°C
[5] = target: T2, p12 R3A, K4A, R5A, yeast two-hybrid fusion (AD and BD) (human) (UniProt Q9HCU8); assay: as above
T2 sequence: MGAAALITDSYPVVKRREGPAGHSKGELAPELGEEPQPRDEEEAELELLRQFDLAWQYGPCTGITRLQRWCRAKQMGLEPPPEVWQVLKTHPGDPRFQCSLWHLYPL

[6] = target: p50 subunit of human DNA polymerase delta, yeast two-hybrid fusion (BD-p50) (human) (UniProt P49005); assay: as above
[7] = target: p125 subunit of human DNA polymerase delta, yeast two-hybrid fusion (BD-p125) (human) (UniProt P28340); assay: as above
[8] = target: T3, p12 L104A, Y105A, yeast two-hybrid fusion (BD) (human) (UniProt Q9HCU8); assay: as above
T3 sequence: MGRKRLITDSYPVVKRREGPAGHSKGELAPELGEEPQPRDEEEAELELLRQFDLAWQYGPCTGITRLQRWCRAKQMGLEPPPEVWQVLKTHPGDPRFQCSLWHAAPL

[9] = target: T1, p12, wild type, expressed in HEK293 cells (GFP-p12 and FLAG-p12) (human); assay: co-IP; HEK293 cells co-transfected with FLAG-p12 and GFP-p12 or GFP-p12 R3A, K4A, R5A; anti-FLAG agarose beads, RIPA buffer, blot with anti-GFP
[10] = target: T4, p68 subunit of human DNA polymerase delta, yeast two-hybrid fusion (BD-p68) (human), Q15054; assay: two-hybrid; HFY7C yeast, GAL4-AD and GAL4-BD fusions, HIS3 reporter, growth on Leu-Trp-His- medium, 2 d at 30°C; conditions: remark: other sources report otherwise
T4 chain: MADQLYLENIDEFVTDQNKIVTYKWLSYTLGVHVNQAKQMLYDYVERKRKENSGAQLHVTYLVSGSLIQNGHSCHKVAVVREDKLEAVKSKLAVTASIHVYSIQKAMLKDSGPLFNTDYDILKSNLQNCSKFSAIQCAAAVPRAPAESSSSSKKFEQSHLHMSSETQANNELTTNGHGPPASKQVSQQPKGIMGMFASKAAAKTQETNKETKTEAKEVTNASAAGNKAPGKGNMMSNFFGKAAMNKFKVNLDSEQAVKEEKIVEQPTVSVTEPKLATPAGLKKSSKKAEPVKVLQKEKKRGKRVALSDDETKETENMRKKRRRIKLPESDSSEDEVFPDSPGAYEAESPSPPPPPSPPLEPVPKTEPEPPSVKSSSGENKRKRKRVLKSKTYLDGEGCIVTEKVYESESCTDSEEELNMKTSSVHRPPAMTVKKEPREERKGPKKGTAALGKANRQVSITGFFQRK

[11] = target: T5, p12 R3A, K4A, R5A mutant, purified, GST tag cleaved off (human) (UniProt Q9HCU8); assay: native gel or EMSA; 12% native PAGE, 80 V for 5 h at 4°C, 25 mM Tris base, 192 mM glycine, pH 8.8, Coomassie staining; migration compared with carbonic anhydrase or with the mutant; both purified
T5 sequence: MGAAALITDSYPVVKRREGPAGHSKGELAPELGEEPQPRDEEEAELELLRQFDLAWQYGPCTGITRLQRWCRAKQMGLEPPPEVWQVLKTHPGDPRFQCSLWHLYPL

[12] = target: T5, p12 R3A, K4A, R5A mutant, purified, GST tag cleaved off (human); assay: SEC; about 10 μg of protein on Superdex 200 PC3.2/30, 50 mM Hepes pH 7.5, 150 mM NaCl, 10% glycerol, 4°C; both purified
[13] = target: T5, p12 R3A, K4A, R5A mutant, purified, GST tag cleaved off (human); assay: cross-linking; 1-5 μg of protein in 20 mM Hepes pH 7.5, 0.5% formaldehyde, 30 min at 25°C, 12% SDS-PAGE, Coomassie; both purified
[14] = target: Cdm1 K2A, K3A, R4A mutant, purified (S. pombe) (UniProt O59835); assay: native gel or EMSA; 12% native PAGE, 80 V for 5 h at 4°C, 25 mM Tris base, 192 mM glycine, pH 8.8, Coomassie staining; migration compared with carbonic anhydrase or with the mutant; both purified
[15] = target: T5, p12 R3A, K4A, R5A mutant, purified, GST tag cleaved off (human); assay: ITC; p12 (10 μM) in the cell, p12 (120 μM) in the syringe, 30°C, 20 mM Hepes pH 7.4, 150 mM NaCl, single-site model; dimer to monomers; both purified

Molecule: p50, co-expressed in E. coli from pCOLA-hPold234 (from UniProt P49005 1-469)
- binding [1]: binds

Molecule: native p125 of HEK293 cells (from UniProt P28340 1-1107)
- binding [2]: binds

Molecule: native p50 of HEK293 cells (from UniProt P49005 1-469)
- binding [2]: binds
- binding [3]: binds

B1: p12, wild type, yeast two-hybrid fusion (AD-p12 and BD-p12) (protein, UniProt Q9HCU8 1-107)
chain: MGRKRLITDSYPVVKRREGPAGHSKGELAPELGEEPQPRDEEEAELELLRQFDLAWQYGPCTGITRLQRWCRAKQMGLEPPPEVWQVLKTHPGDPRFQCSLWHLYPL
- binding [4]: binds
- binding [5]: no binding
- binding [6]: binds
- binding [7]: binds
- binding [8]: binds

B2: native p12 of HEK293 cells (protein, UniProt Q9HCU8 1-107)
chain: MGRKRLITDSYPVVKRREGPAGHSKGELAPELGEEPQPRDEEEAELELLRQFDLAWQYGPCTGITRLQRWCRAKQMGLEPPPEVWQVLKTHPGDPRFQCSLWHLYPL
- binding [2]: binds
- binding [3]: binds

B3: p12, wild type, expressed in HEK293 cells (GFP-p12 and FLAG-p12) (protein, UniProt Q9HCU8 1-107)
chain: MGRKRLITDSYPVVKRREGPAGHSKGELAPELGEEPQPRDEEEAELELLRQFDLAWQYGPCTGITRLQRWCRAKQMGLEPPPEVWQVLKTHPGDPRFQCSLWHLYPL
- binding [3]: binds
- binding [9]: binds

B4: native p68 of HEK293 cells (protein, UniProt Q15054 1-466)
chain: MADQLYLENIDEFVTDQNKIVTYKWLSYTLGVHVNQAKQMLYDYVERKRKENSGAQLHVTYLVSGSLIQNGHSCHKVAVVREDKLEAVKSKLAVTASIHVYSIQKAMLKDSGPLFNTDYDILKSNLQNCSKFSAIQCAAAVPRAPAESSSSSKKFEQSHLHMSSETQANNELTTNGHGPPASKQVSQQPKGIMGMFASKAAAKTQETNKETKTEAKEVTNASAAGNKAPGKGNMMSNFFGKAAMNKFKVNLDSEQAVKEEKIVEQPTVSVTEPKLATPAGLKKSSKKAEPVKVLQKEKKRGKRVALSDDETKETENMRKKRRRIKLPESDSSEDEVFPDSPGAYEAESPSPPPPPSPPLEPVPKTEPEPPSVKSSSGENKRKRKRVLKSKTYLDGEGCIVTEKVYESESCTDSEEELNMKTSSVHRPPAMTVKKEPREERKGPKKGTAALGKANRQVSITGFFQRK
- binding [3]: binds

B5: p68, co-expressed in E. coli from pCOLA-hPold234 (protein, UniProt Q15054 1-466)
chain: MADQLYLENIDEFVTDQNKIVTYKWLSYTLGVHVNQAKQMLYDYVERKRKENSGAQLHVTYLVSGSLIQNGHSCHKVAVVREDKLEAVKSKLAVTASIHVYSIQKAMLKDSGPLFNTDYDILKSNLQNCSKFSAIQCAAAVPRAPAESSSSSKKFEQSHLHMSSETQANNELTTNGHGPPASKQVSQQPKGIMGMFASKAAAKTQETNKETKTEAKEVTNASAAGNKAPGKGNMMSNFFGKAAMNKFKVNLDSEQAVKEEKIVEQPTVSVTEPKLATPAGLKKSSKKAEPVKVLQKEKKRGKRVALSDDETKETENMRKKRRRIKLPESDSSEDEVFPDSPGAYEAESPSPPPPPSPPLEPVPKTEPEPPSVKSSSGENKRKRKRVLKSKTYLDGEGCIVTEKVYESESCTDSEEELNMKTSSVHRPPAMTVKKEPREERKGPKKGTAALGKANRQVSITGFFQRK
- binding [1]: binds

B6: FLAG-p12, co-expressed in E. coli from pCOLA-hPold234 (His-FLAG-p12) (protein, UniProt Q9HCU8 1-107)
chain: MGRKRLITDSYPVVKRREGPAGHSKGELAPELGEEPQPRDEEEAELELLRQFDLAWQYGPCTGITRLQRWCRAKQMGLEPPPEVWQVLKTHPGDPRFQCSLWHLYPL
- binding [1]: binds

B7: p12 R3A, K4A, R5A, yeast two-hybrid fusion (AD and BD) (protein, UniProt Q9HCU8 1-107)
chain: MGAAALITDSYPVVKRREGPAGHSKGELAPELGEEPQPRDEEEAELELLRQFDLAWQYGPCTGITRLQRWCRAKQMGLEPPPEVWQVLKTHPGDPRFQCSLWHLYPL
- binding [6]: binds
- binding [7]: binds

B8: p12, wild type, yeast two-hybrid fusion (AD-p12 and BD-p12), Q9HCU8 1-107 (protein)
chain: MGRKRLITDSYPVVKRREGPAGHSKGELAPELGEEPQPRDEEEAELELLRQFDLAWQYGPCTGITRLQRWCRAKQMGLEPPPEVWQVLKTHPGDPRFQCSLWHLYPL
- binding [10]: no binding

B9: GFP-p12 R3A, K4A, R5A, expressed in HEK293 cells (protein, UniProt Q9HCU8 1-107)
chain: MGAAALITDSYPVVKRREGPAGHSKGELAPELGEEPQPRDEEEAELELLRQFDLAWQYGPCTGITRLQRWCRAKQMGLEPPPEVWQVLKTHPGDPRFQCSLWHLYPL
- binding [9]: no binding

B10: p12 R3A, K4A, R5A mutant, purified, GST tag cleaved off (protein, UniProt Q9HCU8 1-107)
chain: MGAAALITDSYPVVKRREGPAGHSKGELAPELGEEPQPRDEEEAELELLRQFDLAWQYGPCTGITRLQRWCRAKQMGLEPPPEVWQVLKTHPGDPRFQCSLWHLYPL
- binding [11]: no binding
- binding [12]: no binding (tested: about 10 μg loaded)
- binding [13]: no binding (tested: 1-5 μg of protein)

B11: Cdm1 K2A, K3A, R4A mutant, purified (protein, UniProt O59835 1-160)
chain: MAAATTQAKKSGQNTNIRDVFPHVVRSNSSQSHIGKKVSSEQSPTPDVTITTKTLDERIKEDDELSKEVEEAWNQIMAERISEPIHCENITKVEFILHHFDTTARYGPYLGMTRMQRWKRAKNFNLNPPETVGKILMLEEADEENRKRESLFYDLQTIPG
- binding [14]: no binding

B12: p12 subunit of human DNA polymerase delta, wild type, purified, GST tag cleaved off (natural protein, UniProt Q9HCU8 1-107, looked up)
chain: MGRKRLITDSYPVVKRREGPAGHSKGELAPELGEEPQPRDEEEAELELLRQFDLAWQYGPCTGITRLQRWCRAKQMGLEPPPEVWQVLKTHPGDPRFQCSLWHLYPL
notes: DNA polymerase delta subunit 4 (p12), human; PCR product from pCOLA-hPold234; also called untagged p12; wild-type p12; source: E. coli BL21 DE3, purified (glutathione-sepharose; GST cleaved by PreScission protease); not shown: GST, N-terminal, cleaved
- binding [15]: no binding (tested: 10 μM in the cell, 120 μM in the syringe)
